Drawing on PubChem BioAssay (NCI), this text covers TGI and GI50 for 18 compounds.

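Where inhibition never reached the appropriate level, the endpoint shown equals the highest concentration tested. Otherwise, values were interpolated linearly from a five-concentration, 48-hour dose response in 96-well plates. GI50 marks 50% less growth. TGI: concentration producing complete growth inhibition.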

This assay relates to NCI-H322M lung. Put plainly: NCI-60 cell line screen, 48 h.
Turning to `CCCCC(=O)c1ccc2ccccc2c1O`, the TGI was > 100 µM.

For the compound `Cc1ccc([N+](=O)[O-])cc1S(=O)(=O)Nc1ccc(C2=NN(c3ccc([N+](=O)[O-])cc3[N+](=O)[O-])C(c3cccs3)C2)cc1` (stereo not given), the TGI was found to be 83.8 µM. `CC(=O)c1sc2c(c1OC(=O)c1ccco1)c(=O)n(-c1ccccc1)c(=S)n2-c1ccccc1`: the TGI turned out to be 63.5 µM. Still for that read-out and setting: the value for `Cc1cc(S(=O)(=O)Nc2nc(N)n(-c3ccccn3)n2)c(S)cc1Cl` was > 100 µM; that for `CN(C)CCNC(=O)c1cccc2ccc(-c3ccncc3)nc12` was 22.3 µM. On to `O=c1[nH]nc(-c2ccccc2)n1/N=C/c1ccc([N+](=O)[O-])cc1`, for which the TGI was > 100 µM. Same read-out and setting: the value for `N#CC1C(=O)N(c2ccccc2)NC12OC(=O)c1ccncc12` (stereo not given) was > 20 µM; that for `Cc1c(C)c(C)n(C2OC(CO)C(O)C(O)C2O)c(=S)c1C#N` (stereo not given) was > 100 µM.

Regarding `Nc1nc(N(Cc2ccccc2)c2ccccc2)c2cn[nH]c2n1`, the GI50 was 7.28 µM and the TGI was > 100 µM. On to `O=C(O)c1nn(-c2ccccc2-c2n[nH]c(=O)[nH]c2=O)c(=O)[nH]c1=O`, for which the TGI was > 100 µM.

`O=c1oc2ccccc2cc1-c1csc(Nc2ccc(F)cc2)n1` came in with a TGI of 16.1 µM.

As to `O=c1cc(N2CCNCC2)nc2ccccn12`, the TGI was > 100 µM.

On to `Cc1ccc(C(=O)NC(C)C)cc1-c1ccc(C(=O)NCC2CC2)cc1`, for which the GI50 is > 25 µM and the TGI was > 25 µM. `O=C(O)C(=Cc1ccc(-c2ccccc2)cc1)C(=O)O`: the TGI is > 57.3 µM. The same measure, in the same setting: the value for `CCCC1N2CCCCC2[C@@H]2c3[nH]c4ccccc4c3CCN12` (stereo not given in full) was > 100 µM. Same read-out and setting: the same measure for `O=C(O)C(CS)Nc1c2ccccc2nc2ccccc12` (stereo not given): > 100 µM; for `CC(=O)N(C(C)=O)n1c(Cc2ccc(Cl)cc2)n[nH]c1=O`: > 100 µM; for `O=C1c2ccccc2C(=O)c2c1cc(S(=O)(=O)O)c(O)c2O`: > 100 µM.
